# Source: the supplement of paper PMC8728848
# Some of the results follow.
# B1: SP16665A-bot-344-23-344 (Bacteroides ovatus) (protein)
# chain: SDNEFPDFDYQTVYFANQYGLRTIELGESEFVDNTLDNQHKMVIKAAWGGGYTNRNNVVINFKVDESLCDNLYFKDTDQPLVPMPASYYTLASDRIAIPKGQIMAGVEVQLTDDFFADEKSISENYVIPLLMTNVQGADSILQGKPVVENPVLTNAGDWSILPQNFVLYAVKYVNPWHGEYLRRGIDHATVAGTSKDIIRHEQFVENDEVVNISTKSMKDNLLTLKTKDESGKDISYTVRLSFAEDGSCTVHSGSQNVVVSGSGKFVSKGEKNSLGGKDRNAIYLDYTVNLTDNNIQLATKDTLVLRTRNVYGGKSLEVVRK
# What was measured:
# Test in all cases: glycan array binding signal (z-score within array); higher = stronger binding
# Conditions in all cases: glycan notation: IUPAC condensed, linker removed
# [1] = biological target: Gal3S(b1-4)Glc
# How it was run: (§1)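 The binding signal is a Z-score computed within each array and averaged over linkers. Arrays of the same protein sequence at different concentrations or buffers were also averaged together. Data originate from 3228 arrays in the Consortium for Functional Glycomics database, kept only where the protein sequence was available.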
# [2] = biological target: Gal3S(b1-4)Glc6S
# How it was run: as §1
# [3] = biological target: Gal3S(b1-4)GlcNAc
# How it was run: as §1
# [4] = biological target: Gal3S(b1-4)[Fuc(a1-3)]Glc6S
# How it was run: as §1
# [5] = biological target: Gal3S(b1-4)[Fuc(a1-3)]GlcNAc
# How it was run: as §1
# [6] = biological target: Gal3S(b1-4)[Fuc(a1-3)]GlcNAc6S
# How it was run: as §1
# [7] = biological target: Gal3S4S(b1-4)GlcNAc
# How it was run: as §1
# [8] = biological target: Gal3S6S(b1-4)GlcNAc
# How it was run: as §1
# [9] = biological target: Gal3S6S(b1-4)GlcNAc6S
# How it was run: as §1
# [10] = biological target: Gal4S(b1-4)GlcNAc
# How it was run: as §1
# [11] = biological target: Gal4S6S(b1-4)GlcNAc
# How it was run: as §1
# [12] = biological target: Gal6P(b1-4)GlcNAc
# How it was run: as §1
# [13] = biological target: Gal6S(b1-3)GlcNAc
# How it was run: as §1
# [14] = biological target: Gal6S(b1-3)GlcNAc6S
# How it was run: as §1
# [15] = biological target: Gal6S(b1-4)Glc
# How it was run: as §1
# [16] = biological target: Gal6S(b1-4)Glc6S
# How it was run: as §1
# [17] = biological target: Gal6S(b1-4)GlcNAc
# How it was run: as §1
# [18] = biological target: Gal6S(b1-4)GlcNAc6S
# How it was run: as §1
# [19] = biological target: GalNAc(a1-3)Gal
# How it was run: as §1
# [20] = biological target: GalNAc(a1-3)GalNAc
# How it was run: as §1
# [21] = biological target: GalNAc(a1-3)GalNAc(b1-3)Gal(a1-4)Gal(b1-4)Glc
# How it was run: as §1
# [22] = biological target: GalNAc(a1-3)GalNAc(b1-3)Gal(a1-4)Gal(b1-4)GlcNAc
# How it was run: as §1
# [23] = biological target: GalNAc(b1-3)Gal
# How it was run: as §1
# [24] = biological target: GalNAc(b1-3)Gal(a1-4)Gal(b1-4)GlcNAc
# How it was run: as §1
# [25] = biological target: GalNAc(b1-3)Gal(a1-4)Gal(b1-4)GlcNAc(b1-3)Gal(b1-4)Glc
# How it was run: as §1
# [26] = biological target: GalNAc(b1-3)Gal(a1-6)Gal(b1-4)Glc
# How it was run: as §1
# [27] = biological target: GalNAc(b1-3)GalNAc
# How it was run: as §1
# [28] = biological target: GalNAc(b1-3)GlcNAc
# How it was run: as §1
# [29] = biological target: GalNAc(b1-4)Gal(b1-4)Glc
# How it was run: as §1
# [30] = biological target: GalNAc(b1-4)GlcNAc
# How it was run: as §1
# [31] = biological target: GalNAc(b1-4)GlcNAc(b1-2)Man
# How it was run: as §1
# [32] = biological target: GalNAc(b1-4)GlcNAc(b1-2)Man(a1-3)[GalNAc(b1-4)GlcNAc(b1-2)Man(a1-6)]Man(b1-4)GlcNAc(b1-4)GlcNAc
# How it was run: as §1
# [33] = biological target: GalNAc(b1-4)GlcNAc(b1-3)GalNAc(b1-4)GlcNAc
# How it was run: as §1
# [34] = biological target: GalNAc(b1-4)GlcNAc6S
# How it was run: as §1
# [35] = biological target: GalNAc(b1-6)GalNAc
# How it was run: as §1
# [36] = biological target: GalNAc3S(b1-4)GlcNAc
# How it was run: as §1
# [37] = biological target: GalNAc3S(b1-4)GlcNAc3S
# How it was run: as §1
binder,measurement,setting,value
B1,glycan array binding signal (z-score),[1],0.257
same,glycan array binding signal (z-score),[2],-0.049
same,glycan array binding signal (z-score),[3],-0.26
same,glycan array binding signal (z-score),[4],0.627
same,glycan array binding signal (z-score),[5],-0.285
same,glycan array binding signal (z-score),[6],0.244
same,glycan array binding signal (z-score),[7],0.201
same,glycan array binding signal (z-score),[8],-0.342
same,glycan array binding signal (z-score),[9],0.111
same,glycan array binding signal (z-score),[10],0.159
same,glycan array binding signal (z-score),[11],-0.453
same,glycan array binding signal (z-score),[12],-0.354
same,glycan array binding signal (z-score),[13],-0.111
same,glycan array binding signal (z-score),[14],-0.062
same,glycan array binding signal (z-score),[15],0.17
same,glycan array binding signal (z-score),[16],0.024
same,glycan array binding signal (z-score),[17],-0.335
same,glycan array binding signal (z-score),[18],0.157
same,glycan array binding signal (z-score),[19],0.558
same,glycan array binding signal (z-score),[20],1.35
same,glycan array binding signal (z-score),[21],-0.02
same,glycan array binding signal (z-score),[22],-0.21
same,glycan array binding signal (z-score),[23],-0.419
same,glycan array binding signal (z-score),[24],0.107
same,glycan array binding signal (z-score),[25],-0.168
same,glycan array binding signal (z-score),[26],-0.042
same,glycan array binding signal (z-score),[27],0.046
same,glycan array binding signal (z-score),[28],0.254
same,glycan array binding signal (z-score),[29],-0.085
same,glycan array binding signal (z-score),[30],1.18
same,glycan array binding signal (z-score),[31],-0.103
same,glycan array binding signal (z-score),[32],1.54
same,glycan array binding signal (z-score),[33],0
same,glycan array binding signal (z-score),[34],-0.085
same,glycan array binding signal (z-score),[35],-0.485
same,glycan array binding signal (z-score),[36],-0.022
same,glycan array binding signal (z-score),[37],-0.114
